Measured values: the supplement of paper PMC12217912
The list shows a part of the results. Sequences were assembled here from the parent chain. Inactive controls read about 0.05.

B1: TEV protease; numbered along this chain (parent)
chain: MGESLFKGPRDYNPISSSICHLTNESDGHTTSLYGIGFGPFIITNKHLFRRNNGTLVVQSLHGVFKVKDTTTLQQHLVDGRDMIIIRMPKDFPPFPQKLKFREPQREERICLVTTNFQTKSMSSMVSDTSCTFPSGDGIFWKHWIQTKDGQCGSPLVSTRDGFIVGIHSASNFTNTNNYFTSVPKNFMELLTNQEAQQWVSGWRLNADSVLWGGHKVFMVKPEEPFQPVKEATQL

Variants of: B1
Experiment: raw area under fraction-flipped curve 0-4 h after induction (AUC4h, not background-subtracted), DNA-recorder readout of cleavage of the substrate (dimensionless); higher = more cleavage of the substrate by the protease variant
Conditions: temperature: 34 °C; time window: 0-4 h after rhamnose induction
Method: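 In vivo DNA recorder in E. coli TOP10(DE3) ΔrhaA at 34 °C. Each TEVp single-site mutant (parent TEVp 0) is paired with a single-site variant of the 7-mer TEVs (canonical ENLYFQ|S). The substrate sits between flexible linkers in a Bxb1-sfGFP-TEVs-SsrA fusion, so cleavage stabilises Bxb1 and speeds flipping of a recombination array, read by NGS. The value is the raw area under the fraction-flipped curve over 0-4 h after rhamnose induction (AUC4h), with ≥20 reads per time point. It is not background-subtracted; inactive controls average about 0.047.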
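Also: Bxb1 expression induced with 0.2% (w/v) L-rhamnose at OD600 near 0.5, cultures sampled hourly, flipped fraction per protease–substrate barcode pair counted by paired-end Illumina sequencing.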

Variant	area with substrate ENLYCQS	area with substrate ENLYDQS	area with substrate ENLYEQS	area with substrate ENLYGQS	area with substrate ENLYHQS	area with substrate ENLYIQS	area with substrate ENLYKQS	area with substrate ENLYMQS	area with substrate ENLYNQS	area with substrate ENLYPQS	area with substrate ENLYSQS	area with substrate ENLYTQS	area with substrate ENLYVQS	area with substrate ENLYYQS	area with substrate ENLYLQS	area with substrate ENLYQQS	area with substrate ENLYRQS	area with substrate ENLYWQS	area with substrate ENLYAQS
T55C	0.0864	0.0654	0.0603	0.0706	0.0789	0.119	0.0619	0.0871	0.0718	0.0811	0.118	0.0673	0.108	0.0583					
K98N	0.0982	0.0754	0.0627	0.0843	0.063	0.142	0.0816	0.0849	0.0761	0.072		0.0895	0.0999	0.0653	0.086	0.0656	0.0746	0.0543	
K98S	0.0862	0.054	0.0692	0.0716	0.0732	0.122	0.0343	0.099	0.0846	0.0758		0.0774	0.118	0.0589		0.0603	0.0706	0.0682	
G37F	0.0674	0.0538	0.0404	0.0503	0.0564		0.0153	0.0654	0.0554	0.0573			0.0736	0.059	0.0775	0.0663	0.0518	0.0672	0.0232
K230S	0.0983	0.0543	0.0555	0.0695	0.0679	0.124	0.066	0.0915	0.0601	0.0776	0.0608	0.0735	0.0839		0.0768	0.0619	0.0744	0.0976	
S135K	0.0711	0.0599	0.0564	0.0303	0.0579	0.0757	0.0586	0.0514	0.0566	0.0616		0.0602	0.0679	0.0584		0.0604		0.0653	
V57S	0.0963	0.068	0.0646	0.0673	0.0704	0.13			0.101	0.0789	0.098		0.178	0.0709		0.059	0.0667	0.128	
V57N	0.0736	0.0684	0.0636		0.0673		0.052	0.107	0.0742	0.0906	0.0777						0.0654		
S171C	0.0703	0.0637	0.0645		0.0602	0.0927				0.0614	0.0674	0.0721	0.0766	0.0643		0.056		0.0723	
W199P	0.07	0.0663	0.0808		0.0558	0.0787	0.0659	0.062	0.0618	0.0644	0.0558	0.06		0.0702	0.064		0.0733		
P89L	0.0626	0.0653	0.0412		0.0381	0.0884	0.056	0.0808	0.0468	0.0332						0.0589			
K221S	0.062		0.061	0.0576	0.0601		0.0552	0.0757	0.0623	0.0614		0.0691	0.121				0.063		
K221L	0.132	0.0532	0.058	0.0818	0.0526	0.0713	0.0293	0.0723	0.052	0.0783		0.0454	0.0922	0.0626	0.0617		0.0596	0.0752	
P155I	0.0614	0.0429	0.0595		0.0568	0.0617	0.0604	0.0749		0.0522		0.0461	0.0845	0.0534		0.0694	0.0527	0.0632	0.0867
S121K	0.0836	0.0388		0.065	0.075	0.131		0.0883	0.0794	0.0775	0.0973					0.076	0.0577	0.081	
S121I		0.0615	0.101	0.0736	0.062	0.117	0.07	0.0728	0.0712	0.0717	0.0726	0.0642	0.149	0.0544			0.0517	0.0786	0.0891
V157W	0.0542	0.0529	0.052	0.046	0.0536	0.0656	0.0325	0.0656	0.0561	0.058			0.0829	0.047		0.0588	0.0548	0.0522	
E195R	0.103	0.0762	0.0636	0.0846	0.0832	0.127	0.0693	0.0811	0.066	0.0668	0.062		0.0654		0.0681	0.0604	0.0707		
E195A	0.0945		0.0571	0.0858	0.0639		0.0686	0.0802	0.0646		0.0811	0.0731	0.102		0.0351	0.0659		0.0786	
D82L	0.0547	0.0551	0.0539	0.0357	0.0391	0.0543			0.059		0.0622	0.0517				0.0516		0.0508	
H62Y	0.0729			0.0645	0.0665		0.0545	0.0833	0.0547			0.113	0.108	0.0718	0.0892	0.0454	0.0543	0.0928	
F173E	0.102	0.0508	0.0588		0.0615	0.149				0.0733			0.117	0.0433	0.0689		0.0843		
N175G	0.0924	0.0609	0.0539	0.0735	0.0497		0.0691	0.102	0.0399	0.0664		0.0827	0.131			0.058	0.0618	0.0754	
E189G	0.104		0.0582		0.0535		0.059	0.0885	0.078	0.0708	0.0686	0.0871		0.0743	0.0772	0.0643		0.0853	
L211M	0.0876	0.075	0.0791	0.07	0.0706	0.0793	0.0496		0.083	0.0616	0.0826	0.06	0.14		0.0573	0.0547	0.0564		
